The assay addresses T1, hPD1 (Acro Biosystems), SPR analyte (human, UniProt Q15116 part only).
T1 construct: also called human PD1 kinetics
As to the kind of experiment: SPR (Biacore), antibody captured by anti-Fc, hPD1 as analyte, 25 C. The method, then: Anti-Fc polyclonal antibodies were immobilized onto a CMS chip (GE Life Sciences) using amine coupling chemistry (from Amine Coupling Kit, GE Life Sciences). The immobilization steps were carried out at a flow rate of 25 μl/min in 1×HBS-EP+buffer (GE Life Sciences; 10× Stock diluted before use). The sensor surfaces were activated for 7 min with a mixture of NHS (0.05 M) and EDC (0.2 M). The Anti-Fc antibodies were injected over all 4 flow cells at a concentration of 25 ug/ml in 10 mM sodium acetate, pH 4.5, for 7 min. Ethanolamine (1 M, pH 8.5) was injected for 7 min to block any remaining activated groups. An average of 12,000 response units (RU) of capture antibody was immobilized on each flow cell.
Kinetic binding experiments were performed at 25° C. using 1×HBS-EP+buffer. Test and control antibodies were injected over the anti-Fc surface at concentrations of 5-10 μg/mL for 12 seconds at a flow rate of 10 μl/min on flow cells 2, 3 and 4, followed by a buffer wash for 30 seconds at the same flow rate. Kinetic characterization of antibody samples was carried out with a dilution series of antigen and 1 injection of 0 nM antigen. After capturing ligand (antibody) on the anti-Fc surface, the analyte (hPD1 or hLAG3, Acro Biosystems, Newark, Del.) was bound at 100, 25, 6.25 and 0 nM for 180 seconds, followed by a 450 second dissociation phase at a flow rate of 50 μl/min. Between each ligand capture and analyte binding cycle, regeneration was carried out using 2 injections of 10 mM Glycine pH 2.0 for 30 seconds at 30 μL/min, followed by a 30 second buffer wash step.
The data was fit with the Biacore T200 Evaluation software, using a 1:1 Langmuir binding model. KD (affinity, nM) was determined as a ratio of the kinetic rate constants calculated from the fits of the association and dissociation phases.

T1 sequence (Q15116 25-167 limits assumed): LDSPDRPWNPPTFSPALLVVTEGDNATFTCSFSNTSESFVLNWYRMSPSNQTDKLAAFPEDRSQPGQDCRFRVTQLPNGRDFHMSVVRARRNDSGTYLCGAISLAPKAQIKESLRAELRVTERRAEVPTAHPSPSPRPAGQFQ

B1: Construct N: 1353-G10 R28T/P30D/H31S zwB × 1449-G09.2 Fab zwA (bispecific antibody, human IgG1, kappa)
scFv: EVQLVQSGAEVKKPGASVKVSCKASGYTFDSYGISWVRQAPGQGLEWMGWISAYNGNTNYAQKLQGRVTMTTDTSTNTAYMELRSLRSDDTAVYYCARDVDYGTGSGYWGQGTLVTVSSGGGGSGGGGSGGGGSSYELTQPPSVSVSPGQTARITCSGDALPKQYAYWYQQKPGQAPVMVIYKDTERPSGIPERFSGSSSGTKVTLTISGVQAEDEADYYCQSADNSITYRVFGGGTKVTVLAAGSDQ[no letters for human IgG1 Fc with changes]
heavy: MQVQLVESGGGVVQPGRSLRLSCAASGFTFSSYGMHWVRQAPGKGLEWVAVIWYDGSYKYYADSVKGRFTISRDNSKNTLYLQMNSLRAEDTAVYYCAREEAPENWDYALDVWGQGTTVTVSSASTKGPSVFPLAPSSKSTSGGTAALGCLVKDYFPEPVTVSWNSGALTSGVHTFPAVLQSSGLYSLSSVVTVPSSSLGTQTYICNVNHKPSNTKVDKKVEPKSCDKTHTCPPCPAPELLGGPSVFLFPPKPKDTLMISRTPEVTCVVVDVSHEDPEVKFNWYVDGVEVHNAKTKPREEQYNSTYRVVSVLTVLHQDWLNGKEYKCKVSNKALPAPIEKTISKAKGQPREPQVYVYPPSREEMTKNQVSLTCLVKGFYPSDIAVEWESNGQPENNYKTTPPVLDSDGSFALVSKLTVDKSRWQQGNVFSCSVMHEALHNHYTQKSLSLSPGK
light: [no letters for about 100 residues][no letters for about 120 residues]
notes: I assembled the PD-1 scFvFc chain from the named parts
B1 returned a Kd of 4.01 nM and a kon of 1.38e+06 M⁻¹ s⁻¹.

B2: Construct J: aPD1 1353-G10 R28T/P30D zwB × aLAG3 1449-G09.2 Fab zwA (bispecific antibody, human IgG1, kappa)
scFv: EVQLVQSGAEVKKPGASVKVSCKASGYTFDHYGISWVRQAPGQGLEWMGWISAYNGNTNYAQKLQGRVTMTTDTSTNTAYMELRSLRSDDTAVYYCARDVDYGTGSGYWGQGTLVTVSSGGGGSGGGGSGGGGSSYELTQPPSVSVSPGQTARITCSGDALPKQYAYWYQQKPGQAPVMVIYKDTERPSGIPERFSGSSSGTKVTLTISGVQAEDEADYYCQSADNSITYRVFGGGTKVTVLAAGSDQ[no letters for human IgG1 Fc with changes]
heavy: B1 heavy
light: [no letters for about 100 residues][no letters for about 120 residues]
Regarding B2, binding was characterised by a dissociation constant (Kd) of 1.19 nM and the koff turned out to be 0.00109 s⁻¹.

B3: Construct M: 1353-G10 R28T/P30T/H31D zwB × 1449-G09.2 Fab zwA (bispecific antibody, human IgG1, kappa)
scFv: EVQLVQSGAEVKKPGASVKVSCKASGYTFTDYGISWVRQAPGQGLEWMGWISAYNGNTNYAQKLQGRVTMTTDTSTNTAYMELRSLRSDDTAVYYCARDVDYGTGSGYWGQGTLVTVSSGGGGSGGGGSGGGGSSYELTQPPSVSVSPGQTARITCSGDALPKQYAYWYQQKPGQAPVMVIYKDTERPSGIPERFSGSSSGTKVTLTISGVQAEDEADYYCQSADNSITYRVFGGGTKVTVLAAGSDQ[no letters for human IgG1 Fc with changes]
heavy: B1 heavy
light: [no letters for about 100 residues][no letters for about 120 residues]
Consider B3, for which the Kd was 4.91 nM, the koff came out at 0.0102 s⁻¹ and the kon amounted to 2.07e+06 M⁻¹ s⁻¹.

B4: Construct K: a1353-G10 R28T/P30T/H31S zwB × 1449-G09.2 Fab zwA (bispecific antibody, human IgG1, kappa)
scFv: EVQLVQSGAEVKKPGASVKVSCKASGYTFTSYGISWVRQAPGQGLEWMGWISAYNGNTNYAQKLQGRVTMTTDTSTNTAYMELRSLRSDDTAVYYCARDVDYGTGSGYWGQGTLVTVSSGGGGSGGGGSGGGGSSYELTQPPSVSVSPGQTARITCSGDALPKQYAYWYQQKPGQAPVMVIYKDTERPSGIPERFSGSSSGTKVTLTISGVQAEDEADYYCQSADNSITYRVFGGGTKVTVLAAGSDQ[no letters for human IgG1 Fc with changes]
heavy: B1 heavy
light: [no letters for about 100 residues][no letters for about 120 residues]
B4: binding was put at a Kd of 5.3 nM, the koff is 0.00724 s⁻¹ and the association rate constant (kon) is 1.37e+06 M⁻¹ s⁻¹.

B5: Construct L: 1353-G10 R28D/P30T/H31S zwB × 1449-G09.2 Fab zwA (bispecific antibody, human IgG1, kappa)
scFv: EVQLVQSGAEVKKPGASVKVSCKASGYDFTSYGISWVRQAPGQGLEWMGWISAYNGNTNYAQKLQGRVTMTTDTSTNTAYMELRSLRSDDTAVYYCARDVDYGTGSGYWGQGTLVTVSSGGGGSGGGGSGGGGSSYELTQPPSVSVSPGQTARITCSGDALPKQYAYWYQQKPGQAPVMVIYKDTERPSGIPERFSGSSSGTKVTLTISGVQAEDEADYYCQSADNSITYRVFGGGTKVTVLAAGSDQ[no letters for human IgG1 Fc with changes]
heavy: B1 heavy
light: [no letters for about 100 residues][no letters for about 120 residues]
Regarding B5, binding was put at a Kd of 5.18 nM, the koff turned out to be 0.00777 s⁻¹ and the kon amounted to 1.5e+06 M⁻¹ s⁻¹.

B6: Construct P: 1353-G10 R28D/P30D zwB × 1449-G09.2 Fab zwA (bispecific antibody, human IgG1, kappa)
scFv: EVQLVQSGAEVKKPGASVKVSCKASGYDFDHYGISWVRQAPGQGLEWMGWISAYNGNTNYAQKLQGRVTMTTDTSTNTAYMELRSLRSDDTAVYYCARDVDYGTGSGYWGQGTLVTVSSGGGGSGGGGSGGGGSSYELTQPPSVSVSPGQTARITCSGDALPKQYAYWYQQKPGQAPVMVIYKDTERPSGIPERFSGSSSGTKVTLTISGVQAEDEADYYCQSADNSITYRVFGGGTKVTVLAAGSDQ[no letters for human IgG1 Fc with changes]
heavy: B1 heavy
light: [no letters for about 100 residues][no letters for about 120 residues]
As to B6, the affinity, expressed as Kd, was 1.02 nM; the koff turned out to be 0.001 s⁻¹; the kon is 985000 M⁻¹ s⁻¹.

B7: Construct Q: 1353-G10 R28D/H31D zwB × 1449-G09.2 Fab zwA (bispecific antibody, human IgG1, kappa)
scFv: EVQLVQSGAEVKKPGASVKVSCKASGYDFPDYGISWVRQAPGQGLEWMGWISAYNGNTNYAQKLQGRVTMTTDTSTNTAYMELRSLRSDDTAVYYCARDVDYGTGSGYWGQGTLVTVSSGGGGSGGGGSGGGGSSYELTQPPSVSVSPGQTARITCSGDALPKQYAYWYQQKPGQAPVMVIYKDTERPSGIPERFSGSSSGTKVTLTISGVQAEDEADYYCQSADNSITYRVFGGGTKVTVLAAGSDQ[no letters for human IgG1 Fc with changes]
heavy: B1 heavy
light: [no letters for about 100 residues][no letters for about 120 residues]
In turn, B7 returned a Kd of 4.32 nM, a dissociation rate constant (koff) of 0.0067 s⁻¹ and a kon of 1.55e+06 M⁻¹ s⁻¹.

B8: Construct O: 1353-G10 R28T/H31D zwB × 1449-G09.2 Fab zwA (bispecific antibody, human IgG1, kappa)
scFv: EVQLVQSGAEVKKPGASVKVSCKASGYTFPDYGISWVRQAPGQGLEWMGWISAYNGNTNYAQKLQGRVTMTTDTSTNTAYMELRSLRSDDTAVYYCARDVDYGTGSGYWGQGTLVTVSSGGGGSGGGGSGGGGSSYELTQPPSVSVSPGQTARITCSGDALPKQYAYWYQQKPGQAPVMVIYKDTERPSGIPERFSGSSSGTKVTLTISGVQAEDEADYYCQSADNSITYRVFGGGTKVTVLAAGSDQ[no letters for human IgG1 Fc with changes]
heavy: B1 heavy
light: [no letters for about 100 residues][no letters for about 120 residues]
B8 came in with a Kd of 4.44 nM, a koff of 0.00748 s⁻¹ and a kon of 1.68e+06 M⁻¹ s⁻¹.

These data come from patent publication US20200079850A1 (SUTRO BIOPHARMA, published 2020).
